In all, about 2,000 compounds went through this assay and about 110 (5.5%) showed an effect of 50% or more. This is one part of the list.
Biological target: Genome polyprotein (dengue virus type 2) (UniProt P29990)
[1] = Thailand/16681/1984, Concentration 25.0 uM, Number of replicates 1.0

## O=C1NCC[C@@H]1CNS(=O)(=O)c1ccc(Oc2ccccc2Cl)cc1
Thailand/16681/1984, Concentration 49.5 uM, Number of replicates 2.0, Standard deviation 4.002985951466216 %
  inhibition: -0.264%
Thailand/16681/1984, Concentration 99.01 uM, Number of replicates 2.0, Standard deviation 4.526482853100752 %
  inhibition: 0.42%
Thailand/16681/1984, Concentration 198.0 uM, Number of replicates 2.0, Standard deviation 4.411103663666057 %
  inhibition: 2.4%

## COc1cccc(C(=O)N2CCN(C(=O)C3CCN(c4ccc(C=O)cc4)CC3)CC2)c1
[1]
  inhibition: 10.9%

## CSc1cccc(CN(C)C(=O)C2CCN(c3ccc(C=O)cc3)CC2)c1
[1]
  inhibition: 12.8%

## O=Cc1ccc(N2CCC(C(=O)Nc3cccc(I)c3)CC2)cc1
[1]
  inhibition: 12%

## Cc1cc(CO)c2cccc(Nc3n[nH]c4ccc(C#N)cc34)c2n1
Thailand/16681/1984, Concentration 49.95 uM, Number of replicates 2.0, Standard deviation 0.3272035180790509 %
  inhibition: 7.32%
Thailand/16681/1984, Concentration 99.9 uM, Number of replicates 2.0, Standard deviation 0.2891408677762565 %
  inhibition: 15.2%

## O=Cc1ccc(N2CCC(C(=O)N3CCC(N4CCc5ccccc5C4)CC3)CC2)cc1
[1]
  inhibition: 13.5%

## NCc1cccc(NC(=O)[C@@H](CO)NC(=O)OCc2ccccc2)c1
Thailand/16681/1984, Concentration 49.5 uM, Number of replicates 2.0, Standard deviation 0.4735169770341957 %
  inhibition: -3.34%
Thailand/16681/1984, Concentration 99.01 uM, Number of replicates 2.0, Standard deviation 2.1222171442022573 %
  inhibition: -3.24%
Thailand/16681/1984, Concentration 198.0 uM, Number of replicates 2.0, Standard deviation 1.1527028197814282 %
  inhibition: -3.94%

## Cc1c(C(=O)NCc2ccccn2)cc(C2CC2)n1C
Thailand/16681/1984, Concentration 49.5 uM, Number of replicates 2.0, Standard deviation 0.7699057540551737 %
  inhibition: -4.4%
Thailand/16681/1984, Concentration 99.01 uM, Number of replicates 2.0, Standard deviation 1.5944737789928543 %
  inhibition: -3.84%
Thailand/16681/1984, Concentration 198.0 uM, Number of replicates 2.0, Standard deviation 0.26712082530325487 %
  inhibition: -3.68%

## CN(c1ccc(Cl)cc1C(N)=O)S(=O)(=O)c1ccc(Oc2ccccc2Cl)cc1
Thailand/16681/1984, Concentration 49.5 uM, Number of replicates 2.0, Standard deviation 0.11551161483271621 %
  inhibition: 1.15%
Thailand/16681/1984, Concentration 99.01 uM, Number of replicates 2.0, Standard deviation 0.4161514072882 %
  inhibition: 3.78%
Thailand/16681/1984, Concentration 198.0 uM, Number of replicates 2.0, Standard deviation 1.5666270190069185 %
  inhibition: 5.59%

## Cc1cc(Br)ccc1CNC(=O)C1CCN(c2ccc(C=O)cc2)CC1
[1]
  inhibition: 4.75%

## O=Cc1ccc(N2CCC(C(=O)NCc3cccc(OC4CCCC4)c3)CC2)cc1
[1]
  inhibition: 5.45%

## O=C(N[C@H]1CCn2c(n[nH]c2=O)C1)c1n[nH]cc1[C@H]1CCCNC1
Thailand/16681/1984, Concentration 49.5 uM, Number of replicates 2.0, Standard deviation 0.8990746863629206 %
  inhibition: -0.826%
Thailand/16681/1984, Concentration 99.01 uM, Number of replicates 2.0, Standard deviation 0.2162331418796865 %
  inhibition: -2%
Thailand/16681/1984, Concentration 198.0 uM, Number of replicates 2.0, Standard deviation 1.1386111474223564 %
  inhibition: -1.46%

## O=C(Nc1cccc(N2CCNCC2)c1)c1cccc2ncccc12
Thailand/16681/1984, Concentration 49.5 uM, Number of replicates 2.0, Standard deviation 0.7096247814305581 %
  inhibition: -0.9%
Thailand/16681/1984, Concentration 99.01 uM, Number of replicates 2.0, Standard deviation 1.3131180031190148 %
  inhibition: -0.574%
Thailand/16681/1984, Concentration 198.0 uM, Number of replicates 2.0, Standard deviation 2.0180605857813765 %
  inhibition: 1.07%

## Cc1cc(CO)c2cccc(NCC3CCOCC3)c2n1
Thailand/16681/1984, Concentration 49.95 uM, Number of replicates 2.0, Standard deviation 0.7338707043405414 %
  inhibition: 7.05%
Thailand/16681/1984, Concentration 99.9 uM, Number of replicates 2.0, Standard deviation 3.3835516958528777 %
  inhibition: 15.6%

## Cc1cc(CO)c2cccc(N3CCC(C(=O)O)CC3)c2n1
Thailand/16681/1984, Concentration 49.95 uM, Number of replicates 2.0, Standard deviation 1.005973455725178 %
  inhibition: 0.555%
Thailand/16681/1984, Concentration 99.9 uM, Number of replicates 2.0, Standard deviation 3.4807086110401904 %
  inhibition: 12.1%

## Cc1nn(CC(=O)Nc2nc(C)c(C)s2)cc1C1CCNCC1
Thailand/16681/1984, Concentration 49.5 uM, Number of replicates 2.0, Standard deviation 0.2878961870460328 %
  inhibition: -2.33%
Thailand/16681/1984, Concentration 99.01 uM, Number of replicates 2.0, Standard deviation 3.4829330374108984 %
  inhibition: 0.646%
Thailand/16681/1984, Concentration 198.0 uM, Number of replicates 2.0, Standard deviation 2.5492665464036164 %
  inhibition: 0.863%

## CN(C(=O)C1CCN(c2ccc(C=O)cc2)CC1)C1CCN(C(=O)OC(C)(C)C)CC1
[1]
  inhibition: 12.2%

## Cc1cc(CO)c2cccc(Nc3cc(C)on3)c2n1
Thailand/16681/1984, Concentration 49.95 uM, Number of replicates 2.0, Standard deviation 1.3194982141200182 %
  inhibition: 1.66%
Thailand/16681/1984, Concentration 99.9 uM, Number of replicates 2.0, Standard deviation 1.2714193652686099 %
  inhibition: 2.71%

## O=Cc1ccc(N2CCC(C(=O)NCC34CC5CC(CC(C5)C3)C4)CC2)cc1
[1]
  inhibition: 11.8%

## Cn1ncc2c(C(=O)Nc3ccc4c(c3)CNC4)cc(-c3cccnc3)nc21
Thailand/16681/1984, Concentration 99.5 uM, Number of replicates 2.0, Standard deviation 0.6966055883154065 %
  inhibition: -0.716%
Thailand/16681/1984, Concentration 295.6 uM, Number of replicates 2.0, Standard deviation 0.8690208118243027 %
  inhibition: 16.8%

## Cc1cnccc1NC(=O)c1nc(C2CC2)n(C)n1
Thailand/16681/1984, Concentration 49.5 uM, Number of replicates 2.0, Standard deviation 1.7027660601441394 %
  inhibition: -2.92%
Thailand/16681/1984, Concentration 99.01 uM, Number of replicates 2.0, Standard deviation 1.340760456256794 %
  inhibition: -2.09%
Thailand/16681/1984, Concentration 198.0 uM, Number of replicates 2.0, Standard deviation 2.3726303476264903 %
  inhibition: -1.34%

From ChEMBL document CHEMBL5606460, “ASAP - DENV-2 NS2B-NS3 protease fluorescence single point” (2024)
